In the experiment the target is vaccinia virus recombinant B5 protein (vaccinia virus). Briefly: ELISA, B5 capture, IgG detect (luminescence) [C]. For orientation: ELISA stands for enzyme-linked immunosorbent assay.

B1: Ch12F (antibody, V domains shown)
VH: EVQLLESGAEVKKPGESLKISCKGSGYTFASYWIVWVRQMPGKGLEYMGSIYPGDSGTRYSPSFRGQVTISADKSINTAYLQWGSLKASDTAFYYCARLKPLRGSLFGEPIGPYDYWGQATLVTVSS
VL: ELALTQPASVSGSPGQSITISCTGTSSDVGGYNAVSWYQQHPGKAPKLMIYEVNKRPSGVSNRFSGSKSGNTASLTISGLQAEDEADYYCSSYRSGGTVVFGGGTKLTVLG
Turning to B1, the binding result is “no binding (tested: 1 ug/ml)”.
